Assay results as given in the supplement of paper PMC12217912.
Some of the results follow. The full chains were built here from the parent and the listed change. Values near 0.05 are background.

B1: TEV protease; numbered along this chain (parent)
chain: MGESLFKGPRDYNPISSSICHLTNESDGHTTSLYGIGFGPFIITNKHLFRRNNGTLVVQSLHGVFKVKDTTTLQQHLVDGRDMIIIRMPKDFPPFPQKLKFREPQREERICLVTTNFQTKSMSSMVSDTSCTFPSGDGIFWKHWIQTKDGQCGSPLVSTRDGFIVGIHSASNFTNTNNYFTSVPKNFMELLTNQEAQQWVSGWRLNADSVLWGGHKVFMVKPEEPFQPVKEATQL

Variants of: B1
Assay: raw area under fraction-flipped curve 0-4 h after induction (AUC4h, not background-subtracted), DNA-recorder readout of cleavage of the substrate (dimensionless); higher = more cleavage of the substrate by the protease variant
Conditions: temperature: 34 °C; time window: 0-4 h after rhamnose induction
Protocol: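 In vivo DNA recorder in E. coli TOP10(DE3) ΔrhaA at 34 °C. Each TEVp single-site mutant (parent TEVp 0) is paired with a single-site variant of the 7-mer TEVs (canonical ENLYFQ|S). The substrate sits between flexible linkers in a Bxb1-sfGFP-TEVs-SsrA fusion, so cleavage stabilises Bxb1 and speeds flipping of a recombination array, read by NGS. The value is the raw area under the fraction-flipped curve over 0-4 h after rhamnose induction (AUC4h), with ≥20 reads per time point. It is not background-subtracted; inactive controls average about 0.047.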
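Also: Bxb1 expression induced with 0.2% (w/v) L-rhamnose at OD600 near 0.5, cultures sampled hourly, flipped fraction per protease–substrate barcode pair counted by paired-end Illumina sequencing.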

Variant	area with substrate ENAYFQS	area with substrate ENCYFQS	area with substrate ENDYFQS	area with substrate ENFYFQS	area with substrate ENGYFQS	area with substrate ENKYFQS	area with substrate ENMYFQS	area with substrate ENNYFQS	area with substrate ENPYFQS	area with substrate ENQYFQS	area with substrate ENTYFQS	area with substrate ENVYFQS	area with substrate ENWYFQS	area with substrate ENEYFQS	area with substrate ENHYFQS	area with substrate ENIYFQS	area with substrate ENRYFQS	area with substrate ENSYFQS	area with substrate ENYYFQS
G54F	0.065	0.0618	0.0561	0.0512	0.0634	0.0546	0.0611	0.063	0.0533	0.0657	0.0751	0.0498	0.0224	–	–	–	–	–	–
G54D	0.0619	0.062	0.067	0.058	0.0653	0.027	–	0.065	0.0766	0.0543	0.0662	0.0593	–	0.0561	0.0591	0.0622	0.0703	0.06	0.0215
C20K	0.054	0.0324	0.051	0.0668	0.0444	0.0579	0.0723	0.0467	0.049	0.0448	0.0493	0.0443	0.0395	0.0517	0.0477	0.0489	0.0507	–	–
C20Y	0.0616	0.0453	0.0532	0.0533	–	0.045	0.0569	0.0366	0.0372	0.0553	–	–	–	0.0296	0.0706	0.0664	–	0.0478	–
V58E	0.0329	–	0.0483	–	–	–	–	–	0.0693	–	–	–	–	–	–	–	–	0.0281	–
P14V	0.0606	0.0707	0.0578	0.0674	0.067	0.0672	0.0473	0.06	0.0527	0.0633	0.0619	–	0.0159	0.0687	0.0629	0.09	–	0.0653	0.0639
P14Q	0.0632	0.0681	0.0716	0.0636	0.0478	0.0652	–	0.0544	0.0557	0.0632	0.0658	0.0895	0.054	0.104	0.0558	–	0.0559	0.056	0.0556
T30A	0.0607	–	0.0638	0.063	0.0619	0.0638	0.0932	0.0648	0.0561	0.0526	–	0.0772	0.0353	0.0546	0.0838	–	0.0608	0.0602	0.0535
S26M	0.0439	0.0564	–	0.0621	0.0485	0.0514	0.0504	0.0555	0.0598	0.0629	0.0589	0.0682	0.0539	0.062	0.0564	–	0.0499	0.0698	0.0541
K7N	0.0551	0.0886	0.0908	–	0.0343	–	–	–	–	–	–	0.0981	0.0475	0.0747	0.0451	–	–	0.0503	–
K7P	0.0489	–	–	0.0614	0.0653	0.0617	–	0.0524	0.0683	0.0659	0.0586	0.078	–	0.0638	0.0988	0.0499	–	0.063	–
I42T	0.0594	–	0.0514	0.0424	0.064	0.0431	0.0574	–	0.0438	0.0323	0.0365	0.058	–	0.0541	0.0482	–	–	–	–
I42M	0.0787	0.0709	–	–	0.0481	0.0931	0.0685	–	0.0399	0.0544	0.057	0.0863	0.0525	0.0701	0.0621	0.0725	0.0368	0.0995	0.0609
I42E	0.035	0.0495	0.0379	0.0554	0.0523	–	0.0333	0.0541	0.0399	0.0438	0.04	–	0.0016	0.0533	0.0362	–	0.0377	0.0443	–
G39P	0.0386	0.0446	0.0434	0.0393	0.046	0.0431	0.0484	–	0.0472	0.0439	0.0442	0.0397	0.0085	0.0402	0.0343	–	0.0408	0.0402	–
G35Q	0.0746	–	–	0.0486	–	–	0.0516	–	–	0.0378	–	–	–	–	–	0.0537	0.0634	–	0.035
V57C	0.0525	–	0.0627	0.0619	0.0485	0.0637	–	0.0682	–	0.0582	0.062	0.0752	–	0.0624	0.0659	–	0.0515	0.0642	0.0556
V57D	0.0577	0.0748	0.0673	0.0545	0.0561	0.0692	–	0.058	0.0474	0.0538	0.0637	0.0839	0.0036	0.0562	0.0597	–	–	0.0566	–
V57A	0.0562	–	0.0431	0.0507	0.0576	–	–	0.0512	0.0572	0.0378	–	0.0662	0.0627	0.0575	–	0.0794	–	–	–
L22F	0.0394	0.0219	0.0538	0.0322	0.054	0.0574	0.0681	–	0.0654	0.0594	0.0446	–	0.0064	0.0553	–	0.0733	–	0.0485	0.059
F41C	0.064	–	0.0686	0.0713	0.0664	–	0.0846	0.047	–	0.0634	0.0591	0.0668	0.0699	0.0572	–	–	0.0461	0.0582	–
F41R	0.051	0.0622	0.0474	0.0478	–	–	–	0.0507	0.0465	0.0581	0.0767	0.053	0.05	0.0497	0.053	0.0537	0.0431	0.0601	0.0611
F41K	0.0521	0.0535	0.0359	0.0428	–	–	–	0.0604	–	0.053	0.0677	0.0409	–	0.0469	–	–	0.0494	0.0518	0.0715
F41S	0.0552	0.0647	0.0586	0.0662	0.0409	0.0511	–	0.0576	0.0619	0.0607	0.0657	0.0604	0.0394	0.0664	0.0598	0.0926	0.0664	0.0627	0.0696
S16P	0.0529	0.0729	–	–	0.0739	0.0532	–	0.0615	0.0655	0.0853	0.061	0.0732	0.102	0.063	0.0647	0.154	–	0.0579	–
